The results in this text go back to the supplement of paper PMC3724861.

This is one part of the list.

The test system of this assay is T1, Caupolican (Caup) homeodomain DNA-binding domain.
T1 sequence: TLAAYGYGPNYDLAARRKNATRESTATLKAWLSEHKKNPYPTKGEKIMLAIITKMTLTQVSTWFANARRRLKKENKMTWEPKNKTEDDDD
Nature of the assay: PBM E-score (8-mer, recovered from the published 9-mer minima) (E-score (dimensionless, -0.5 to 0.5)); Drosophila protein; higher = stronger relative binding preference, active = 0.31 or more. In a few lines:
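Caup's homeodomain DNA-binding domain (residues 214-303) was made by in vitro transcription and translation and applied at 100 nM to custom-designed protein binding microarrays. Each value is an enrichment score that gives relative binding preference for a short DNA word, with higher meaning stronger. The 8-mer values were recovered from published 9-mer scores, each of which was the minimum of its two constituent 8-mer scores. A cutoff of 0.31 marks candidate sites.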
As to TCAAACGA, the “PBM E-score” value is inactive: 0.0735. As for GACATATA, the “PBM E-score” value was inactive: 0.305. As for AGCACGAA, the figure is inactive: 0.112; as for GCCTGCTA, inactive: -0.107. As for AGTGAGGC, the figure is inactive: -0.106; as for CCACCCAC, inactive: -0.105. Consider ACCAAATC, for which the “PBM E-score” value is inactive: 0.0282. The same measure for AGATTACC: inactive: 0.113; for CTTCGGCA: inactive: -0.215. As for AGGTTCTC, the figure is inactive: -0.111; as for GTAAGTAC, inactive: 0.177; as for CTTATGCA, inactive: 0.0215. The same measure for TAATGGTA: inactive: 0.0647; for CCTCCCAC: inactive: -0.108. For the sequence GTCTAGAC, the “PBM E-score” value was inactive: 0.0815.

In the case of ATCTGGCC, the “PBM E-score” value is inactive: -0.139. As for GTCTTGTA, the figure is active: 0.352; as for ATACCGCC, inactive: -0.143; as for TAATTGCA, inactive: 0.0768. Regarding ATTGTATG, the “PBM E-score” value is inactive: 0.196. The same measure for CAGCCGTC: inactive: -0.127; for AATGCCTC: inactive: -0.0478. On to CGCTATTC, for which the “PBM E-score” value was inactive: 0.105. The same measure for GCAGCTTA: inactive: -0.075; for CCCCAAGA: inactive: -0.0902. As for ACGAGTTA, the figure is inactive: 0.126; as for AAATTGTA, inactive: 0.221; as for TAGTAACA, active: ≥ 0.316. As to ATCTAAGG, the “PBM E-score” value was inactive: -0.0527. Regarding ATCCGTGA, the “PBM E-score” value is inactive: -0.0217. For ACCTAACG, the “PBM E-score” value is inactive: -0.142. For GACCTCGA, the “PBM E-score” value is inactive: -0.0288. As for ACTAGATC, the figure is inactive: 0.0865; as for ATGCGTGG, inactive: -0.0631; as for CCCGGCAG, inactive: -0.269. Regarding CAAGGATC, the “PBM E-score” value was inactive: 0.0846. For the sequence AGACCGTA, the “PBM E-score” value is inactive: -0.0541. As for TCGCTTAA, the “PBM E-score” value was inactive: 0.0301.

As to AAAGTGTA, the “PBM E-score” value was inactive: 0.166. Turning to TTGAACAA, the “PBM E-score” value is inactive: 0.226. Regarding CGCCCTAG, the “PBM E-score” value is inactive: -0.274. For the sequence AACTGTCC, the “PBM E-score” value is inactive: 0.00083. For CACGTGGA, the “PBM E-score” value is inactive: 0.1. The same measure for CTCACTTA: inactive: 0.00895; for ATGACGCG: inactive: 0.0946. The same measure for ACGAAAGA: inactive: -0.00046; for AGGCCCGA: inactive: -0.17; for ATTTATCA: inactive: 0.133. As for CATGTTTC, the figure is active: 0.355. CTCGTAAA: the “PBM E-score” value was inactive: 0.0886. For TGATTGAA, the “PBM E-score” value was inactive: 0.139.

In the case of GGAACGCA, the “PBM E-score” value is inactive: -0.2. With ATAACGAG, the “PBM E-score” value is inactive: 0.132. As for GGACTCAA, the figure is inactive: -0.0238; as for GTAACAGA, inactive: 0.211.

Regarding CGTTACAA, the “PBM E-score” value is inactive: 0.289. As for CACTTAGA, the figure is inactive: 0.0817; as for AGTTAGCG, inactive: 0.029; as for CCCGCGAC, inactive: -0.197. The same measure for ACTAGCTG: inactive: 0.0585; for AACCCAAA: inactive: -0.0328.

As for CAGTGACA, the “PBM E-score” value is inactive: 0.207. The same measure for ATATAAAT: no less than 0.192; for GAGCGGCA: inactive: -0.199; for CAAGCCCC: inactive: -0.174.

For TATGAGCA, the “PBM E-score” value was inactive: -0.01.

On to TGTTGCAA, for which the “PBM E-score” value is inactive: 0.276.

As for ATAGAGAG, the “PBM E-score” value is inactive: -0.00882. Take ACTTTTCC: the “PBM E-score” value was inactive: 0.0593. In the case of AGTGTTCC, the “PBM E-score” value is inactive: 0.05. As for GGGGACCA, the figure is inactive: -0.156; as for CCATGCAC, inactive: -0.0759; as for CACCGAGC, inactive: -0.0438. Turning to GGTATACC, the “PBM E-score” value was inactive: 0.116.

With AGCATGTA, the “PBM E-score” value was active: ≥ 0.413. The same measure for GCTGAGAA: inactive: -0.167; for CGTTATTC: inactive: 0.0883. As for GAATTCGA, the figure is inactive: -0.00134; as for CTTATGAC, inactive: 0.0924. In the case of AATCCTGT, the “PBM E-score” value was inactive: 0.213. Take AAGTCCTC: the “PBM E-score” value is inactive: -0.0833. CGATTATA: the “PBM E-score” value is inactive: 0.144. As for AGCGGTGG, the figure is inactive: -0.264; as for CAAGCTCA, inactive: -0.0103.

As to AGACGTGG, the “PBM E-score” value was inactive: -0.0599. As for ACTTTAAA, the figure is inactive: 0.107; as for AGTGCTCA, inactive: -0.0761. As to CTCTCTTA, the “PBM E-score” value is inactive: -0.0249.

For the sequence CGAAGTTA, the “PBM E-score” value was inactive: 0.0673. Turning to AAAGCGGC, the “PBM E-score” value was inactive: -0.198. Take CCCCCGAC: the “PBM E-score” value is inactive: -0.222. As for CCTCACCG, the figure is inactive: -0.187; as for GTGTTCAA, inactive: 0.266. Take GAGCCAGC: the “PBM E-score” value was inactive: -0.154.

Turning to ACCGAGGT, the “PBM E-score” value is inactive: -0.0941.

As to CGAATAAC, the “PBM E-score” value is inactive: 0.197.

For the sequence ACACGTGA, the “PBM E-score” value is inactive: 0.31. For the sequence AAACGAGG, the “PBM E-score” value is inactive: -0.0546. As for ACCGCTAG, the figure is inactive: -0.0641. Turning to CAGTAGCG, the “PBM E-score” value is inactive: -0.17. With AACTTGTC, the “PBM E-score” value is inactive: 0.27. As for TAACTCGA, the figure is no less than 0.126. As for CTAGGTAA, the figure is inactive: 0.0563.

ACTGCGAC: the “PBM E-score” value is inactive: -0.0147. On to TATATTAA, for which the “PBM E-score” value is inactive: 0.208. As to ACAGAATC, the “PBM E-score” value is inactive: 0.0503. AGATGTAT: the “PBM E-score” value is inactive: 0.29. As to CACCTGCC, the “PBM E-score” value is inactive: -0.123. As for CGTCAGGA, the figure is inactive: -0.00148. Regarding GACTGAAC, the “PBM E-score” value is inactive: -0.0053. As for GATGTACA, the figure is active: 0.404. Take AATCGCGG: the “PBM E-score” value was inactive: -0.165.

As for GGTCCAAC, the “PBM E-score” value was inactive: -0.186.
